{"source": "the supplement of paper PMC5655136", "note": "Values come from read counts of a selection and are noisy.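 Note: shRNA barcodes quantified by deep sequencing of PCR amplicons from cellular DNA, counts expressed as percent of each subpool, ratio averaged over two biological duplicates.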", "data": [{"system": "NB7", "test": "fold depletion of shRNA, plasmid library share / infected cells without Dox share (9 days) (ratio); higher = more depleted after infection (more toxic, leaky expression from a Tet-inducible vector; NB7 is a neuroblastoma line without caspase-8)", "settings": "shRNA pool: CD95 ORF + CD95 3'UTR + Venus libraries", "values": [{"sequence": "TATAATGTTTGACTATTATAT", "fold depletion of shRNA": 0.874}, {"sequence": "AACGGCCACAAGTTCAGCGTG", "fold depletion of shRNA": 0.9}, {"sequence": "ACGTAATTAAATAATGTTTTT", "fold depletion of shRNA": 0.871}, {"sequence": "TGCCAAGAAGGGAAGGAGTAC", "fold depletion of shRNA": 1.92}, {"sequence": "TGCACCAAATGTGAACATGGA", "fold depletion of shRNA": 2.32}, {"sequence": "CATCCTGGGGCACAAGCTGGA", "fold depletion of shRNA": 0.911}, {"sequence": "ATGACACATTGATTAAAGATC", "fold depletion of shRNA": 1.51}, {"sequence": "CCAACTTTAAATCCTGAAACA", "fold depletion of shRNA": 1.78}, {"sequence": "GACCGCCGCCGGGATCACTCT", "fold depletion of shRNA": 1.34}, {"sequence": "CTGCCTCCAAGGATGTTTAAA", "fold depletion of shRNA": 2.74}, {"sequence": "TCAATAATGTCCCATGTAAAA", "fold depletion of shRNA": 0.923}, {"sequence": "GCAAGGGCGAGGAGCTGTTCA", "fold depletion of shRNA": 1.19}, {"sequence": "AATGTTCAATAATGTCCCATG", "fold depletion of shRNA": 1.18}, {"sequence": "GCCCATTTTTCTTCCAAATGC", "fold depletion of shRNA": 1.17}, {"sequence": "TCATGAATCTCCAACTTTAAA", "fold depletion of shRNA": 0.976}, {"sequence": "AGCCAACATATTTGTAGATTT", "fold depletion of shRNA": 0.624}, {"sequence": "CCTAATGCACCCCCAAACATG", "fold depletion of shRNA": 4.44}, {"sequence": "TGGAGTTCGTGACCGCCGCCG", "fold depletion of shRNA": 0.898}, {"sequence": "TGAAGCAGCACGACTTCTTCA", "fold depletion of shRNA": 0.185}, {"sequence": "TTCGAAAGAATGGTGTCAATG", "fold depletion of shRNA": 4.9}, {"sequence": "ATTATAATGTTTGACTATTAT", "fold depletion of shRNA": 0.91}, {"sequence": "AGACACAGCAGAACAGAAAGT", "fold depletion of shRNA": 1.24}, {"sequence": "AAAGTACGTAATTAAATAATG", "fold depletion of shRNA": 0.803}, {"sequence": "GCATGCTAAGTACCCAAATAG", "fold depletion of shRNA": 3.79}, {"sequence": "CCAGCAGAACACCCCCATCGG", "fold depletion of shRNA": 1.9}, {"sequence": "CCGCCATGCCCGAAGGCTACG", "fold depletion of shRNA": 1.04}, {"sequence": "CCAGAATACCAAGTGCAGATG", "fold depletion of shRNA": 3.02}, {"sequence": "AATATCACCAAAAAATACTTA", "fold depletion of shRNA": 0.886}, {"sequence": "TTCTTTTGCCAATTCCACTAA", "fold depletion of shRNA": 0.93}, {"sequence": "ATCACCACTATTGCTGGAGTC", "fold depletion of shRNA": 1.75}, {"sequence": "TTTGCAATCAAAGATGATAAA", "fold depletion of shRNA": 0.98}, {"sequence": "CGACGTAAACGGCCACAAGTT", "fold depletion of shRNA": 3.35}, {"sequence": "GTGAAAAACAACAAATTCAGT", "fold depletion of shRNA": 0.887}, {"sequence": "ATGATTCTGCCTCCAAGGATG", "fold depletion of shRNA": 2.01}, {"sequence": "ATATTATACAATATTTCAATT", "fold depletion of shRNA": 0.925}, {"sequence": "TAAGCCCTGTCCTCCAGGTGA", "fold depletion of shRNA": 1.05}, {"sequence": "CACCATCTTCTTCAAGGACGA", "fold depletion of shRNA": 2.23}, {"sequence": "CTTCAGAAATGAAATCCAAAG", "fold depletion of shRNA": 1.01}, {"sequence": "TATATTTCTGTAAATGTAAAC", "fold depletion of shRNA": 1.49}, {"sequence": "TTAAATGTGAATTTTAAGAAA", "fold depletion of shRNA": 0.758}, {"sequence": "CCCATCCTGGTCGAGCTGGAC", "fold depletion of shRNA": 1.95}, {"sequence": "GTAGATTTTTAATATCTCATG", "fold depletion of shRNA": 0.896}, {"sequence": "CACGACTTCTTCAAGTCCGCC", "fold depletion of shRNA": 1.17}, {"sequence": "TGATGTTGACTTGAGTAAATA", "fold depletion of shRNA": 1.41}, {"sequence": "TTCATGGAAAGAAAGAAGCGT", "fold depletion of shRNA": 1.08}, {"sequence": "AATATCTCATGATTCTGCCTC", "fold depletion of shRNA": 0.977}, {"sequence": "GCAATAAATTTATCTGATGTT", "fold depletion of shRNA": 0.741}, {"sequence": "AGACCCGCGCCGAGGTGAAGT", "fold depletion of shRNA": 0.889}, {"sequence": "TTAAATAAGGCTCTACCTCAA", "fold depletion of shRNA": 4.59}, {"sequence": "ATGTTTGCAATCAAAGATGAT", "fold depletion of shRNA": 1.96}, {"sequence": "GTTTGCAATCAAAGATGATAA", "fold depletion of shRNA": 1.86}, {"sequence": "CAGATGTAAACCAAACTTTTT", "fold depletion of shRNA": 0.582}, {"sequence": "GAGAAGATCATATTTATGTAA", "fold depletion of shRNA": 0.705}, {"sequence": "TATAAACTGAAGCAGATACCT", "fold depletion of shRNA": 0.884}, {"sequence": "CCGACCACATGAAGCAGCACG", "fold depletion of shRNA": 2.46}, {"sequence": "GTGACTGACATCAACTCCAAG", "fold depletion of shRNA": 2.19}, {"sequence": "TGACACATTGATTAAAGATCT", "fold depletion of shRNA": 0.861}, {"sequence": "GAAAGATTAAGATTATGCTCT", "fold depletion of shRNA": 1.19}, {"sequence": "GCTGGAGTCATGACACTAAGT", "fold depletion of shRNA": 1.62}, {"sequence": "CCACTACCTGAGCTACCAGTC", "fold depletion of shRNA": 2.88}, {"sequence": "TTAGTACAAATGTCTATCCAC", "fold depletion of shRNA": 0.656}, {"sequence": "TCCAACTTTAAATCCTGAAAC", "fold depletion of shRNA": 0.659}, {"sequence": "AGGTGAAAGGAAAGCTAGGGA", "fold depletion of shRNA": 2.88}, {"sequence": "CAACGAGAAGCGCGATCACAT", "fold depletion of shRNA": 0.812}, {"sequence": "GGCGGCGTGCAGCTCGCCGAC", "fold depletion of shRNA": 1.08}, {"sequence": "ATTTAAGATTCTCCTTACTAC", "fold depletion of shRNA": 1.26}, {"sequence": "TTTCTAAGATTTAAGATTCTC", "fold depletion of shRNA": 0.647}, {"sequence": "GGGTGGTGCCCATCCTGGTCG", "fold depletion of shRNA": 0.708}, {"sequence": "GCAGAACACCCCCATCGGCGA", "fold depletion of shRNA": 1.13}, {"sequence": "TTTACTGGGTACATTTTATCA", "fold depletion of shRNA": 1.66}]}]}
